Data reported in the RNAGym collection of RNA variant scans (doi:10.1101/gad.245936.114).
Variants at the floor of the assay are shown more often than the library holds them.

B1: tRNA (parent)
chain: CUCUCGGUAGCCAAGUUGGUUUAAGGCGCAAGACUUUAAUUUAUCACUACGAAAUCUUGAGAUCGGGCGUUCGACUCGCCCCCGGGAGAUUUUUUCCUCGAGCAA

Variants of: B1
Assay: nonsense suppression (GFP-seq) (ratio to wild type); higher = more function; SUP4oc tRNA, yeast GFP reporter sort-seq
Summary of the method: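 Sorted GFP/RFP bins of yeast were each Illumina-sequenced with a phred ≥30 cutoff; the cells held a genome-integrated ochre-suppressor tRNA variant from a library with ~3% random mutations, a galactose-driven GFP ochre reporter, and RFP. Culture was in raffinose/galactose medium containing 80 mg/L adenine. Nonsense suppression, termed GFPSEQ, is the median GFP/RFP of the bins weighted by each variant's estimated cell share per bin, relative to the unmutated parent tRNA, for variants reaching ≥100 reads and ≥30 cells.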

Nonsense suppression, ≤ 0.026:
C1A C11A G78A G85C
C1A U8A G28A A89C
C1G A13G G61C U76C
C1A G6A U16A U20G A23C G59A G73C
C1A U55A C77A C82U
C1A U4G C27U
C1G A9G C68G A89C
C1G A9G U20C G59C U76C
C1G A14G
C1A A14C G78A G84A
C1A A74U
C1A A24G
C1A A24U
C1A U20G A62U U71G
C1A U8G C12U A14C G85U
C1A A9G C27G G67C
C1A C5A U70A
C1A G85A
C1G A24U G28A A74C C81A A89G
C1A A13U G25C
C1A A33G
C1A C12A
C1G A9G A33G C77A G78C
C1A U17C G25U A33U
C1G A33G U55C U71G G78C
C1A U2A G32U U35A C68G
C1A U57C
C1A U57A
C1A G69C
C1A A23C G88A
C1A G19A U21G A24U
C1A G10A G78C
C1A G61U G86U
C1A G7A
C1A G15C C68U C81A
C1G A31U G88A
C1G A54C A60G
C1A U63C U71A
C1G A54U C56A C72U
C1A G10C G15U U57C C75G
C1A U55A U76C
C1G A33U G67A
C1A C68U
C1A C11G C68U U70C
C1A U2C G19C G69U G78A C80A A87G
C1A C5A U21C U70C A89G
C1G A23G C27A
C1A C81G
C1A U8A C12G U55G
C1A U16G G28U
C1A G10A C27U
C1A C5A U16C
C1A C12G A23C
C1A A62G A74C G84A
C1A G67A G84U
C1A G15U A54C
C1G A24C G26U
C1A G25A G32A
C1A G15C U21G C34U C81A
C1A G88A
C1A G88U
C1G A23U U71C U76G
C1A U16C U70A
C1G A13G U57A
C1A G73C U76A
C1A G18A G65A C68G
C1A U17C
C1A U17A
C1G A30U A31G
C1A C12G G67C
C1A G67C
C1G A14G G66A A74G A89U
C1A G59U U63C
C1A C3G U20C
C1A A24C A60C U63G C72G C77G
C1A G28C G66U C80U
C1A A87U
C1A A87G
C1G A13G C68U
C1A C82U G86A
C1A U17C U20A G59A G69C C79G
C1A C3A C5U G26U C27A U57C
C1A U21C A87U
C1A A54U C72G
C1A A23C A24U C75A
C1A G10U G61A A62C G73C
C1A A23C C72G
C1A C56A
C1G A33G U76G
C1A G67U G85C
C1A A89G
C1A U35G A60C G69A U70A
C1A U35G G61U G69C C83U
C1A G15A G19A A30U U63G U76C
C1A C27U U70C
C1G A9U
C1A C80A C83A
C1A U2G A31U
C1A C34U C75U
C1A C34U G88U
C1A G19U A23G
C1A C5G C11A G18U
C1A C12U U63G G73C
C1A G19U U55A
C1A G86A
C1A G86C
C1A A60C G85A
C1A U17A C27U A87U
C1A C83A
C1A U16A
C1A U16G
C1A A23G A33G G59C
C1A U8C C64U A87C
C1G A9C G59C
C1A C5U A13G U22A C27A C34G C80U
C1G A9U A13C U17C C29A G32U U70A
C1A A14U C81G
C1G A9C A14G C29U U58A
C1A G19U G26A G32C A54U C56A C82G
C1A G32C C83U
C1A G61C
C1A A13C C34A
C1A U4G G25C
C1A C11G A33C
C1A U4A A13U C29U A87U
C1A C5U G6A G67A C79A
C1A U22G G25U
C1A C12G U58A
C1G A9G C11A U21A A30C
C1G A31G
C1G A9G G18U U22C U63A
C1A U2G C3A
C1G A31C A33G G78A G85A
C1G A24C G61C G86U
C1A A9U
C1A U2A U35C U70A
C1A C27A G84C
C1G A9C G18U U71G
C1A G18C
C1A U17G G88A
C1A C5G A62C
C1A U21G G26A
C1G A30G G66U
C1A G7A C72G C80G
C1A A14C U35G G65C C68G G73A
C1A C29U U76C C82A
C1A G7U C12A C29A
C1A A30G C72G
C1A A14G U71A
C1G A23G U63A U70C G73A
C1A C3A
C1A C3G
C1A C56G A62U C80G C82A
C1A C34U U70A C75G C80G A87C
C1A A23C C77A
C1A C11A G78C G88C
C1A U16A G88C
C1G A30C
C1A G15A G26U A54G U57C
C1G A33G
C1A U17G C27G U58C G61C U76C
C1G A23C U55G U58A C75U
C1A U55C C72U A74G
C1A A13C U57C
C1G A9C G67A U71A
C1A G6C G7A
C1A U8G C68G
